Laboratory results as given in the supplement of paper PMC12355420.
“And” between values parts separate entries of the source, which are not always exact repeats. Equal values may be shown once. Where a name gives a salt, the structure may show the parent alone. The list shows a part of the results. Rule as the data show it: active = 0.5 or less and inactive = the rest. Single values are uncertain, as repeats are few or missing.

tested on: HeLa VPS33A R498W KI + HA-SDC1-FLAG; test: relative GAG core protein HA-SDC1 amount per cell number vs DMSO (fraction of DMSO); HeLa model of a glycosaminoglycan (GAG) storage disease; KI is knock-in and KO knock-out; SDC1 is syndecan 1; higher = more SDC1 (GAG core protein); conditions: 50 µM; 24 h
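Also: HA-SDC1 level read out by In-Cell Western staining with an anti-HA antibody against the N-terminal tag, screening FDA-approved library drugs.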

SMILES	relative GAG core protein HA-SDC1 amount per cell number
CN[C@@H]1[C@H](O)[C@H](NC)[C@H]2O[C@@]3(O)C(=O)C[C@@H](C)O[C@H]3O[C@@H]2[C@H]1O [Spectinomycin (hydrochloride hydrate)]	inactive: 0.863
Cc1c(Nc2ncccc2C(=O)O)cccc1C(F)(F)F [Flunixin Meglumin]	active: 0.323
N#C[C@@H]1CCCN1C(=O)CNC12CC3CC(CC(O)(C3)C1)C2 [Vildagliptin (LAF-237)]	inactive: 0.847
Nc1c(CC(=O)O)cccc1C(=O)c1ccc(Br)cc1 [Bromfenac Sodium]	inactive: 1.26
N#C/C(=C1/SC[C@@H](c2ccc(Cl)cc2Cl)S1)n1ccnc1 [Luliconazole]	inactive: 1.31
Nc1ccc(C(=O)O)c(O)c1 [4-Aminosalicylic acid]	inactive: 0.864
NC[C@@H]1O[C@H](O[C@H]2[C@@H](O)[C@H](O[C@@H]3[C@@H](O)[C@H](N)C[C@H](N)[C@H]3O[C@H]3O[C@H](CN)[C@@H](O)[C@H](O)[C@H]3N)O[C@@H]2CO)[C@H](N)[C@@H](O)[C@@H]1O [Neomycin sulfate]	inactive: 1.27
CC(C)(O/N=C(\C(=O)N[C@@H]1C(=O)N2C(C(=O)[O-])=C(C[n+]3ccccc3)CS[C@H]12)c1csc(N)n1)C(=O)O [Ceftazidime]	inactive: 0.97 and inactive: 0.896
NNC(=O)c1ccncc1.Nc1ccc(C(=O)O)c(O)c1 [Pasiniazid]	inactive: 1.07
Clc1ccc(C(Cn2ccnc2)OCc2ccsc2Cl)c(Cl)c1 (centres undefined) [Tioconazole]	active: 0.354
CC(C)(C)C(=O)Oc1ccc(S(=O)(=O)Nc2ccccc2C(=O)NCC(=O)O)cc1 [Sivelestat (ONO-5046)]	inactive: 0.922
CCOC(=O)[C@H](CCc1ccccc1)N[C@@H](C)C(=O)N1[C@H](C(=O)O)C[C@@H]2CCC[C@@H]21 [Ramipril]	inactive: 0.838
CC(O)c1cc(C(=O)N[C@@H](C)Cn2ccc(-c3ccc(C#N)c(Cl)c3)n2)n[nH]1 (some centres undefined)	active: 0.495
CCOC(=O)c1ccc(N)cc1 [Benzocaine]	inactive: 1.16
CC(C)(C)c1nc(-c2cccc(NS(=O)(=O)c3c(F)cccc3F)c2F)c(-c2ccnc(N)n2)s1	inactive: 1.22 and inactive: 0.924
Nc1ccc(C(=O)O)c(O)c1 [Sodium 4-Aminosalicylate]	inactive: 1.09
CCN(CC)CCOCCOC(=O)C(CC)(CC)c1ccccc1 [Oxeladin Citrate]	inactive: 1.24
CC(=O)CCCCn1c(=O)c2c(ncn2C)n(C)c1=O [Pentoxifylline]	inactive: 0.987
COc1ccccc1O [Guaiacol]	inactive: 0.944
CC(C(=O)O)c1ccc2c(c1)[nH]c1ccc(Cl)cc12 (centres undefined) [Carprofen]	inactive: 0.858

SMILES	relative GAG core protein HA-SDC1 amount per cell number
O=C[C@H](O)[C@@H](O)[C@H](O)CO [Xylose]	inactive: 0.882
CC(C)[C@@H]1CC[C@@H](C)C[C@H]1O [L-Menthol]	inactive: 0.836
CCCCC(F)(F)[C@@]1(O)CC[C@H]2[C@@H](CC(=O)[C@@H]2CCCCCCC(=O)O)O1 [Lubiprostone]	inactive: 0.877
O=C([O-])c1ccccc1O.[Na+] [Sodium salicylate]	inactive: 0.913
CN(C)CCC(c1ccccc1)c1ccccn1 (centres undefined) [Pheniramine Maleate]	inactive: 1.08
Cc1c(OCC(F)(F)F)ccnc1C[S+]([O-])c1nc2ccccc2[nH]1 (centres undefined) [Lansoprazole]	inactive: 0.645
O=C(O)c1ccccc1O [Salicylic acid]	inactive: 1.04
CCC(=O)O[C@]1(C(=O)CCl)[C@@H](C)C[C@H]2[C@@H]3CCC4=CC(=O)C=C[C@]4(C)[C@@]3(F)[C@@H](O)C[C@@]21C [Clobetasol propionate]	inactive: 0.508
CC(N)C12CC3CC(CC(C3)C1)C2 (centres undefined) [Rimantadine Hydrochloride]	inactive: 0.84
NNc1nncc2ccccc12 [Hydralazine HCl]	inactive: 0.799
CNC(=O)c1ccc(N2C(=S)N(c3cnc(C#N)c(C(F)(F)F)c3)C(=O)C23CCC3)cc1F	inactive: 1.49
COc1cc(Nc2nc3ccccc3nc2NS(=O)(=O)c2ccc(NC(=O)c3ccc(C)c(OC)c3)cc2)cc(OC)c1	inactive: 0.693
Cc1onc(-c2ccccc2Cl)c1C(=O)N[C@@H]1C(=O)N2[C@@H]1SC(C)(C)[C@@H]2C(=O)O [Cloxacillin Sodium]	inactive: 0.965
O=C1C(CC[S+]([O-])c2ccccc2)C(=O)N(c2ccccc2)N1c1ccccc1 (racemic) [(+/-)-Sulfinpyrazone]	inactive: 0.863
Cc1c(S(=O)(=O)O)oc2c1C(=O)C(=O)c1c-2ccc2c1CCCC2(C)C [Tanshinone IIA---sulfonic sodium]	inactive: 0.636
COc1cccc(OC)c1C(=O)N[C@@H]1C(=O)N2[C@@H]1SC(C)(C)[C@@H]2C(=O)O [Methicillin (sodium salt)]	inactive: 0.795
Nc1ccc(O)c(C(=O)O)c1 [Mesalamine]	inactive: 0.924
OCCOCCN1CCN(C2=Nc3ccccc3Sc3ccccc32)CC1 [Quetiapine Fumarate]	active: 0.231
CC(C(=O)O)c1ccc(C(=O)c2cccs2)cc1 (centres undefined) [Suprofen]	inactive: 0.862
